From the supplement of paper PMC11417369
The list shows a part of the results.

tested on: PfAP2-HC AP2 domain (GST-tagged); assay: gcPBM binding intensity (ln(normalized median fluorescence intensity)); higher = stronger DNA binding
Method in brief: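 Binding intensity is defined as the maximum Masliner-normalised natural-log median intensity across replicate spots for either probe orientation. It was measured on an Agilent 4 × 180k array of primer-extended double-stranded 36-bp intergenic genomic probes and negative controls, to which GST-tagged P. falciparum DNA-binding domains made in E. coli were applied for 1 h in 1× PBS with 1% milk, 0.2 mg/ml BSA, 0.5% salmon testes DNA and 0.03% Triton X-100. Detection was by Alexa488 anti-GST antibody and scanning at 488 nm.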

Row | Sequence | gcPBM binding intensity (ln)
1 | TTTTTTTCTTTTTACATACACACAAAAAAATAAAAT [CACACA_site580] | 9.52
2 | AGCACATTATTCAAAAGTACAAATAGGTATTGTATA [XGTACX_site6107] | 9.59
3 | AATATAAAAAAAAAAAAAAAAAAAAAAAAAAAGACA [CACACA_negctrl_site983] | 9.77
4 | TTGTTAATATGATAAAAGAGGAATATTCTCTTCCTA [GTGCAC_negctrl_site659] | 9.11
5 | TAAAAAAAAACTCATGCACACAATATTATGAAAAAG [CACACA_site665] | 9.87
6 | AAATATTATGTACGCACACACATTTTTAATATATAA [CACACA_site3851] | 10
7 | TTATTTACAACTTCAAATTATGTGTAATACTACTAT [CACACA_negctrl_site741] | 9.72
8 | AAATTAATGTATATGTGAAGCAAGGGATGCGGCAGA [CACACA_negctrl_site406] | 10
9 | ATATATATATATATATAATATATAATATATATATAT [CACACA_negctrl_site96] | 9.64
10 | CAATTATTGTAATGCATGCACTGAATATAAAAAGAA | 9.75
11 | TTTATATGTATTAAGTGTACACATATAATGTATTTT [XGTACX_site16] | 9.73
12 | TTTCATATCTTGTCAAGTACATATTTTTATTTTCTT [XGTACX_site2160] | 9.82
13 | AAAAAATATAATAATTGTACACATGCACACACAAAT [XGTACX_site1563] | 10.2
14 | ACTTAATATCGGTACACACACAAGATAAGAATTATG [CACACA_site894] | 10
15 | AGAGGAGTAAAACAAAACAAAGAGAAATAAACACAC [XGTACX_negctrl_site386] | 10
16 | AATTAATAAATATTATATGTTAATATTTTTTTTGTT [CACACA_negctrl_site1692] | 9.51
17 | ATACTAAAAATGAATGTACACATATATATATATATA [TGCATGCA_negctrl_site209] | 9.82
18 | ATATATCTTTATATAGTGCATTAAATATGTTGTAAT [GTGCAC_site9953] | 9.5
19 | TATAATAAAATATTTTGTACGTATATTTTAATATTT [XGTACX_site2582] | 9.59
20 | AAAAAAAATAAAAATAGTACCCAAAAAATTATGAAT [XGTACX_site6641] | 9.73
21 | TTTTTATAAAAATGAACACACACATATATATATATA [CACACA_site9160] | 9.79
22 | AATAACACTATTTAACGTACAAAAAAAAAAAAGAAA [XGTACX_site3721] | 9.72

Row | Sequence | gcPBM binding intensity (ln)
23 | ACAAAAAAAAAAAAAAAAAGAAGAATATATCTATAT [CACACA_negctrl_site759] | 9.34
24 | TATCATACAATATTCACACAAATAAATTGACATATT [CACACA_site5891] | 9.61
25 | CACAGACACGGACACACACACACAAAAAAAAAAAGA [CACACA_site4436] | 11.3
26 | TATTAAAAAAATATTTGTACTTAAAATTTATTATAT [XGTACX_site1467] | 9.48
27 | TATTTTCTTTAATTAATTATTGGTCTGAATGGGGTT [CACACA_negctrl_site418] | 9.56
28 | AAAAAGGAAATAATAACACACATTAGTAATTATAAA [CACACA_site7573] | 9.85
29 | AATATCTTAGTGGATACACACATATAAATGGGTATT [CACACA_site4426] | 9.72
30 | TCATATGTTAAACACACACACACACCGAAAAAAACA [CACACA_site9067] | 10.6
31 | AAAAAATTAAAAAAAAAAAAATCATGAAAAAAACAA [CACACA_negctrl_site1673] | 9.7
32 | TTTATTGATAATATATATATATATATATATATATAT [GTGCAC_negctrl_site552] | 9.48
33 | AGTCTATAGTAATTTACACACAAAAAAATATCAGGA [CACACA_site7620] | 9.89
34 | AGTAGTCTGGAGAAAAGTACATAGTATCTGGTAGCT [XGTACX_site2027] | 9.63
35 | CCTAAATAAATGGACACACACATATATATATATATA [CACACA_site1439] | 9.88
36 | CTTATATTAAGTATTACACACATATATATAAATGCA [CACACA_site4581] | 9.65
37 | TATATATATATAAGAAGTACAGAAAATTAGAAAAAA [XGTACX_site8773] | 9.77
38 | TAGAAATAAGAAAAATGTACATATAATATTGAAAGT [XGTACX_site3043] | 10.1
39 | TTTTACGTAATATTTATACACACGAACCTTATTAAT [CACACA_site2300] | 9.82
40 | GATGTGTATATTAAATGTACGAACAGTTGAGGCGAA [XGTACX_site7853] | 9.86
41 | AGGATATAAAGTTGTGCATGTCAAGTGCACCGTATT [TGCATGCA_site451] | 9.67
42 | AGAAAAATCTAAATTCGTACATAACGTTTAAACATA [XGTACX_site2511] | 9.43
43 | CAGCATGGTATACCTATAAAATATATATACTAACAT [TGCATGCA_negctrl_site51] | 9.56
44 | TTTTTAAAAAATAAGAAAAAATAAATATATTACAAA [XGTACX_negctrl_site191] | 9.41

Row | Sequence | gcPBM binding intensity (ln)
45 | ATGTTACACAGACACACACACATAAAAAAACAAAAA [CACACA_site7516] | 10.4
46 | GGCATATATACATATGGTACACATTTATTAATACCG [XGTACX_site2710] | 9.76
47 | CACATACATATATATACACACAAATATATATACGCA [CACACA_site791] | 10.1
48 | AGAACATGCAAACATGCACACAGAAAAAAAAAATAT [CACACA_site8442] | 10.1
49 | GTTTTATTCCATTATTGTACTTAATATAAAGAAACT [XGTACX_site3054] | 9.5
50 | ATAATAATATGTGGGTGTACATATACACATATATAT [XGTACX_site4356] | 9.9
51 | ATAAATTGAAGTAAATTTGACCTTTTTTTTTTTTTT [GTGCAC_negctrl_site354] | 9.44
52 | TTCATTTATATAATCACACATTTTATCATCTATGTT [CACACA_site4327] | 9.97
53 | TTAGAAAGAATGTATTGTACATATATATTATATATA [XGTACX_site7045] | 9.45
54 | ATATGTTTATTTATTTGTACTTATCATATAATAACA [XGTACX_site5486] | 9.49
55 | TGTATATTTTAGTGATGTACTAATATTATTACTAAT [XGTACX_site3952] | 9.61
56 | TGCTTAGCACACTATCTACTTCCTTTGTTTCATAAA [GTGCAC_negctrl_site495] | 9.73
57 | TTTTTCACATCTATAAATCATCTAATCAATATTTTT [GTGCAC_negctrl_site444] | 9.55
58 | ATTCTAATTAGTAAAGTGCAGATAAAATGATGCCCT [GTGCAC_site9578] | 9.42
59 | AATATATTTTGATATGAACAATTAATAATTTCAAAT [GTGCAC_negctrl_site170] | 9.51
60 | ATCGTTATATAATGTTGTACTTGTTATATATATATA [XGTACX_site7582] | 9.9
61 | GCATGCACGGAAAAAAGTACATATATAAATTTGGTT [XGTACX_site3393] | 9.54
62 | GGTTCTAAAAAGGGAAGTACATGGAAAAATATAAAT [XGTACX_site4639] | 9.46
63 | TTTTTTAAATATATTTGTACATATGAAATAAAGATA [XGTACX_site3841] | 9.28
64 | AAAATTTAGCAAAGGTGTACAAAAGATAATTAGAGT [XGTACX_site3467] | 10
65 | AAAATTATTATGAAAAGTACAAATATGTAAACATAC [XGTACX_site5517] | 9.69
66 | ATTAAAATCATATACACACCCATATATATATATATA [CACACA_site5050] | 10.1

Row | Sequence | gcPBM binding intensity (ln)
67 | ATACATATCTACCTATGTACATAATACAACAAAGAT [XGTACX_site323] | 9.72
68 | GAATAAATACCGGTGTGTACTTAAATCATTCACGAA [XGTACX_site3174] | 9.8
69 | GCACATATGAATATAATACACACTTGTATTATTAAT [CACACA_site1841] | 9.8
70 | ATTTTATATACAAAATGTACATATTTATTATATATG [XGTACX_site6732] | 9.68
71 | GGAGCTATCTCCTGCACACACAATTTTTTTTTTTTT [CACACA_site2240] | 9.95
72 | AAGGATACGCAAAAATGTACAAAATGCTTATAAATA [XGTACX_site984] | 9.68
73 | TTTTTTTTTAATAAAATTATAATAAATATGAAATTA [XGTACX_negctrl_site369] | 9.12
74 | ATATATATATATATATGTACACATATATATACTCAC [XGTACX_site8043] | 9.94
75 | TGAGTATATAAATACACACACATATATATATTTTAA [CACACA_site5130] | 9.96
76 | TTTTATTTTTAAGGATGTACTCAATTGTTTATATAC [XGTACX_site3965] | 9.7
77 | ATACACTTAATATTATGTACATATATAAAAAAAATA [XGTACX_site1500] | 9.66
78 | TATATTTAAATTCTTTCAAATCATGTTGTAATTTTT [CACACA_negctrl_site1349] | 9.62
79 | AATTGTATGTATGCCTGTACATATGTCTATCTTAAG [XGTACX_site1927] | 9.75
80 | TATTTTATATGAGGCACACAAATTTTAATTGTTATT [CACACA_site725] | 9.63
81 | ATTTATTTATTTTTTTGTACTTATAATTTTTATTAT [XGTACX_site2656] | 9.8
82 | TATAAAAATAATATTACACACATGTAAAATGGGGGT [CACACA_site9071] | 10.2
83 | AGGAATATCGAAAACTGTACTTGTATGTTTCATAAA [XGTACX_site6143] | 9.57
84 | TATTTATCTATATATTGTACTTATTAGTCTTAATGT [XGTACX_site4242] | 9.77
85 | TAAATTTATGGACACACACACATATATATATATATA [CACACA_site4620] | 10.3
86 | TCTTTTTTAATATAATATATTTTTATTAAGTAAATC [TGCATGCA_negctrl_site408] | 9.47
87 | TTATATATAGATCACACACACACACCGGTTTTAAAA [CACACA_site4220] | 11.2
